Results taken from patent US20250066451A1 (SWEDISH ORPHAN BIOVITRUM AB PUBL, published 2025).

T1: Human IL-1R-I-Fc (Creative BioMart cat. no. IL1RI-771H) (human, UniProt P14778 18-332, limits assumed)
T1 construct: Bought Fc fusion; also called hIL-1R-I-Fc; hIL-1RI-Fc; not shown: Fc part of the bought fusion
T1 sequence (looked up): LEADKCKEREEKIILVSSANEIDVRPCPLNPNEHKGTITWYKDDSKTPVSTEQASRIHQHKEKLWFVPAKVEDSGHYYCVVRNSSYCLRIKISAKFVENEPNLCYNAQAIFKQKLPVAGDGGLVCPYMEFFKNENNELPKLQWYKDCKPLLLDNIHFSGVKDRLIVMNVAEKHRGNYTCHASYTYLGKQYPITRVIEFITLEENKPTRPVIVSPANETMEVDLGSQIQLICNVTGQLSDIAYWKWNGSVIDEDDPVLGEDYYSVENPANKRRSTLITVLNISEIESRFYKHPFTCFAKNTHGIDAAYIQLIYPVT


Biological target: T1, Human IL-1R-I-Fc (Creative BioMart cat. …)
Assay: ELISA, captured Z-ABD, hIL-1R-I-Fc titrated

| Binder | EC50 [nM] |
| --- | --- |
| Z18757 (designed binder, Z-ABD001 fusion in periplasmic extract; also called Z-ABD) AQHDEALEVDAKYAKEIEEIQMEIFRLPNLTRKQYTAFIRKLFDDPSQSSELLSEAKKLNDSQAPKVDYVLAEAKVLANRELDKYGVSDYYKNLINNAKTVEGVKALIDEILAALPYVPG | 0.3 |
| Z18758 (designed binder, Z-ABD001 fusion in periplasmic extract; also called Z-ABD) AQHDEALEVDAKYAKETEVVQMEIFGLPNLTRRQYTAFIRKLFDDPSQSSELLSEAKKLNDSQAPKVDYVLAEAKVLANRELDKYGVSDYYKNLINNAKTVEGVKALIDEILAALPYVPG | 0.24 |
| Z18759 (designed binder, Z-ABD001 fusion in periplasmic extract; also called Z-ABD) AQHDEALEVDAKYAKEIEKVQMEIFHLPNLTRKQYTAFIRKLLDDPSQSSELLSEAKKLNDSQAPKVDYVLAEAKVLANRELDKYGVSDYYKNLINNAKTVEGVKALIDEILAALPYVPG | 0.24 |
| Z18760 (designed binder, Z-ABD001 fusion in periplasmic extract; also called Z-ABD) AQHDEALEVDAKYAKETEAVQMEIFALPNLTRRQYTAFIRKLLDDPSQSSELLSEAKKLNDSQAPKVDYVLAEAKVLANRELDKYGVSDYYKNLINNAKTVEGVKALIDEILAALPYVPG | 0.17 |
| Z18763 (designed binder, Z-ABD001 fusion in periplasmic extract; also called Z-ABD) AQHDEALEVDAKYAKEIEAVQMEIFGLPNLTRKQYTAFIRKLLDDPSQSSELLSEAKKLNDSQAPKVDYVLAEAKVLANRELDKYGVSDYYKNLINNAKTVEGVKALIDEILAALPYVPG | 0.26 |
| Z18766 (designed binder, Z-ABD001 fusion in periplasmic extract; also called Z-ABD) AQHDEALEVDAKYAKETEQVQMEIFHLPNLTRRQYTAFIRKLLDDPSQSSELLSEAKKLNDSQAPKVDYVLAEAKVLANRELDKYGVSDYYKNLINNAKTVEGVKALIDEILAALPYVPG | 0.33 |
| Z18769 (designed binder, Z-ABD001 fusion in periplasmic extract; also called Z-ABD) AQHDEALEVDAKYAKEVEEVQMEIFHLPNLTRRQYTAFIRKLLDDPSQSSELLSEAKKLNDSQAPKVDYVLAEAKVLANRELDKYGVSDYYKNLINNAKTVEGVKALIDEILAALPYVPG | 0.29 |
| Z18770 (designed binder, Z-ABD001 fusion in periplasmic extract; also called Z-ABD) AQHDEALEVDAKYAKETERVQMEIFSLPNLTRRQYTAFIRKLLDDPSQSSELLSEAKKLNDSQAPKVDYVLAEAKVLANRELDKYGVSDYYKNLINNAKTVEGVKALIDEILAALPYVPG | 0.28 |
| Z18771 (designed binder, Z-ABD001 fusion in periplasmic extract; also called Z-ABD) AQHDEALEVDAKYAKEVEEIQMEIFRLPNLTRKQYTAFIRKLLDDPSQSSELLSEAKKLNDSQAPKVDYVLAEAKVLANRELDKYGVSDYYKNLINNAKTVEGVKALIDEILAALPYVPG | 0.25 |
| Z18774 (designed binder, Z-ABD001 fusion in periplasmic extract; also called Z-ABD) AQHDEALEVDAKYAKEIEVIQMEIFRLPNLTRKQYTAFIRKLLDDPSQSSELLSEAKKLNDSQAPKVDYVLAEAKVLANRELDKYGVSDYYKNLINNAKTVEGVKALIDEILAALPYVPG | 0.26 |
| Z18776 (designed binder, Z-ABD001 fusion in periplasmic extract; also called Z-ABD) AQHDEALEVDAKYAKEVEAIQMEIFHLPNLTRRQYTAFIRKLLDDPSQSSELLSEAKKLNDSQAPKVDYVLAEAKVLANRELDKYGVSDYYKNLINNAKTVEGVKALIDEILAALPYVPG | 0.22 |
| Z18777 (designed binder, Z-ABD001 fusion in periplasmic extract; also called Z-ABD) AQHDEALEVDAKYAKEIEQVQMEIFRLPNLTRRQYTAFIRKLLDDPSQSSELLSEAKKLNDSQAPKVDYVLAEAKVLANRELDKYGVSDYYKNLINNAKTVEGVKALIDEILAALPYVPG | 0.26 |
| Z18785 (designed binder, Z-ABD001 fusion in periplasmic extract; also called Z-ABD) AQHDEALEVDAKYAKELEEIQMEIFHLPNLTRKQYTAFIRKLLDDPSQSSELLSEAKKLNDSQAPKVDYVLAEAKVLANRELDKYGVSDYYKNLINNAKTVEGVKALIDEILAALPYVPG | 0.25 |
| Z18786 (designed binder, Z-ABD001 fusion in periplasmic extract; also called Z-ABD) AQHDEALEVDAKYAKELEEVQMEIFRLPNLTRKQYTAFIRKLFDDPSQSSELLSEAKKLNDSQAPKVDYVLAEAKVLANRELDKYGVSDYYKNLINNAKTVEGVKALIDEILAALPYVPG | 0.24 |

Now from value to binder:

| EC50 [nM] | Binder |
| --- | --- |
| 0.26 | Z18790 (designed binder, Z-ABD001 fusion in periplasmic extract; also called Z-ABD) AQHDEALEVDAKYAKEVEAVQMEIFALPNLTRRQYTAFIRKLLDDPSQSSELLSEAKKLNDSQAPKVDYVLAEAKVLANRELDKYGVSDYYKNLINNAKTVEGVKALIDEILAALPYVPG |
| 0.23 | Z18799 (designed binder, Z-ABD001 fusion in periplasmic extract; also called Z-ABD) AQHDEALEVDAKYAKEVEAIQMEIFHLPNLTRKQYTAFIRKLFDDPSQSSELLSEAKKLNDSQAPKVDYVLAEAKVLANRELDKYGVSDYYKNLINNAKTVEGVKALIDEILAALPYVPG |
| 0.25 | Z18803 (designed binder, Z-ABD001 fusion in periplasmic extract; also called Z-ABD) AQHDEALEVDAKYAKEIEQIQMEIFRLPNLTRRQYTAFIRKLLDDPSQSSELLSEAKKLNDSQAPKVDYVLAEAKVLANRELDKYGVSDYYKNLINNAKTVEGVKALIDEILAALPYVPG |
| 0.27 | Z18804 (designed binder, Z-ABD001 fusion in periplasmic extract; also called Z-ABD) AQHDEALEVDAKYAKELEEIQMEIFRLPNLTRRQYTAFIRKLLDDPSQSSELLSEAKKLNDSQAPKVDYVLAEAKVLANRELDKYGVSDYYKNLINNAKTVEGVKALIDEILAALPYVPG |
| 0.27 | Z18805 (designed binder, Z-ABD001 fusion in periplasmic extract; also called Z-ABD) AQHDEALEVDAKYAKEIEAVQMEIFALPNLTRKQYTAFIRKLFDDPSQSSELLSEAKKLNDSQAPKVDYVLAEAKVLANRELDKYGVSDYYKNLINNAKTVEGVKALIDEILAALPYVPG |
| 0.27 | Z18806 (designed binder, Z-ABD001 fusion in periplasmic extract; also called Z-ABD) AQHDEALEVDAKYAKETEEIQMEIFRLPNLTRKQYTAFIRKLLDDPSQSSELLSEAKKLNDSQAPKVDYVLAEAKVLANRELDKYGVSDYYKNLINNAKTVEGVKALIDEILAALPYVPG |
| 0.4 | Z18808 (designed binder, Z-ABD001 fusion in periplasmic extract; also called Z-ABD) AQHDEALEVDAKYAKEVEEVQMEIFRLPNLTRKQYTAFIRKLLDDPSQSSELLSEAKKLNDSQAPKVDYVLAEAKVLANRELDKYGVSDYYKNLINNAKTVEGVKALIDEILAALPYVPG |
| 0.29 | Z18810 (designed binder, Z-ABD001 fusion in periplasmic extract; also called Z-ABD) AQHDEALEVDAKYAKETEEVQMEIFGLPNLTRKQYTAFIRKLFDDPSQSSELLSEAKKLNDSQAPKVDYVLAEAKVLANRELDKYGVSDYYKNLINNAKTVEGVKALIDEILAALPYVPG |
| 0.28 | Z18811 (designed binder, Z-ABD001 fusion in periplasmic extract; also called Z-ABD) AQHDEALEVDAKYAKELETVQMEIFHLPNLTRKQYTAFIRKLLDDPSQSSELLSEAKKLNDSQAPKVDYVLAEAKVLANRELDKYGVSDYYKNLINNAKTVEGVKALIDEILAALPYVPG |
| 0.2 | Z18813 (designed binder, Z-ABD001 fusion in periplasmic extract; also called Z-ABD) AQHDEALEVDAKYAKEVEEIQMEIFALPNLTRKQYTAFIRKLFDDPSQSSELLSEAKKLNDSQAPKVDYVLAEAKVLANRELDKYGVSDYYKNLINNAKTVEGVKALIDEILAALPYVPG |
| 0.27 | Z18814 (designed binder, Z-ABD001 fusion in periplasmic extract; also called Z-ABD) AQHDEALEVDAKYAKEVEEIQMEIFALPNLTRRQYTAFIRKLLDDPSQSSELLSEAKKLNDSQAPKVDYVLAEAKVLANRELDKYGVSDYYKNLINNAKTVEGVKALIDEILAALPYVPG |
| 0.29 | Z18819 (designed binder, Z-ABD001 fusion in periplasmic extract; also called Z-ABD) AQHDEALEVDAKYAKETEEVQMEIFGLPNLTRRQYTAFIRKLLDDPSQSSELLSEAKKLNDSQAPKVDYVLAEAKVLANRELDKYGVSDYYKNLINNAKTVEGVKALIDEILAALPYVPG |
| 0.33 | Z18820 (designed binder, Z-ABD001 fusion in periplasmic extract; also called Z-ABD) AQHDEALEVDAKYAKELEAIQMEIFRLPNLTRKQYTAFIRKLLDDPSQSSELLSEAKKLNDSQAPKVDYVLAEAKVLANRELDKYGVSDYYKNLINNAKTVEGVKALIDEILAALPYVPG |
| 0.28 | Z18824 (designed binder, Z-ABD001 fusion in periplasmic extract; also called Z-ABD) AQHDEALEVDAKYAKETEAVQMEIFHLPNLTRRQYTAFIRKLLDDPSQSSELLSEAKKLNDSQAPKVDYVLAEAKVLANRELDKYGVSDYYKNLINNAKTVEGVKALIDEILAALPYVPG |
| 0.35 | Z18825 (designed binder, Z-ABD001 fusion in periplasmic extract; also called Z-ABD) AQHDEALEVDAKYAKETEKVQMEIFGLPNLTRKQYTAFIRKLFDDPSQSSELLSEAKKLNDSQAPKVDYVLAEAKVLANRELDKYGVSDYYKNLINNAKTVEGVKALIDEILAALPYVPG |
| 0.24 | Z18826 (designed binder, Z-ABD001 fusion in periplasmic extract; also called Z-ABD) AQHDEALEVDAKYAKEIEEIQMEIFGLPNLTRRQYTAFIRKLLDDPSQSSELLSEAKKLNDSQAPKVDYVLAEAKVLANRELDKYGVSDYYKNLINNAKTVEGVKALIDEILAALPYVPG |
| 0.24 | Z18827 (designed binder, Z-ABD001 fusion in periplasmic extract; also called Z-ABD) AQHDEALEVDAKYAKETEKVQMEIFRLPNLTRRQYTAFIRKLLDDPSQSSELLSEAKKLNDSQAPKVDYVLAEAKVLANRELDKYGVSDYYKNLINNAKTVEGVKALIDEILAALPYVPG |
| 0.29 | Z18831 (designed binder, Z-ABD001 fusion in periplasmic extract; also called Z-ABD) AQHDEALEVDAKYAKEIEEVQMEIFYLPNLTRRQYTAFIRKLLDDPSQSSELLSEAKKLNDSQAPKVDYVLAEAKVLANRELDKYGVSDYYKNLINNAKTVEGVKALIDEILAALPYVPG |
